This is one part of the list.
Assays:
Test in all cases: glycan array binding signal (z-score within array); higher = stronger binding
Details in all cases: glycan notation: IUPAC condensed, linker removed
GlcNAc(b1-3)Man = target: GlcNAc(b1-3)Man
Outline: (§1)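 The binding signal is a Z-score computed within each array. Data were drawn from 3228 arrays in the Consortium for Functional Glycomics database, restricted to those with a known protein sequence. Scores were averaged over arrays of the same protein sequence at different concentrations or buffers, and over linkers, and negative values can be taken as non-binding.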

[1] = target: GlcNAc(b1-3)[GlcNAc(b1-4)][GlcNAc(b1-6)]GlcNAc
Outline: as §1

[2] = target: GlcNAc(b1-3)[GlcNAc(b1-6)]Gal(b1-4)GlcNAc
Outline: as §1

[3] = target: GlcNAc(b1-3)[GlcNAc(b1-6)]GalNAc
Outline: as §1

[4] = target: GlcNAc(b1-4)Gal(b1-4)GlcNAc
Outline: as §1

GlcNAc(b1-4)GlcNAc = target: GlcNAc(b1-4)GlcNAc
Outline: as §1

[5] = target: GlcNAc(b1-4)GlcNAc(b1-4)GlcNAc
Outline: as §1

[6] = target: GlcNAc(b1-4)GlcNAc(b1-4)GlcNAc(b1-4)GlcNAc(b1-4)GlcNAc
Outline: as §1

[7] = target: GlcNAc(b1-4)GlcNAc(b1-4)GlcNAc(b1-4)GlcNAc(b1-4)GlcNAc(b1-4)GlcNAc
Outline: as §1

[8] = target: GlcNAc(b1-4)[GlcNAc(b1-6)]GalNAc
Outline: as §1

[9] = target: GlcNAc(b1-6)Gal(b1-4)GlcNAc
Outline: as §1

GlcNAc(b1-6)GalNAc = target: GlcNAc(b1-6)GalNAc
Outline: as §1

[10] = target: GlcNAc6S(b1-3)Gal(b1-4)GlcNAc
Outline: as §1

Kdn(a2-3)Gal(b1-3)GalNAc = target: Kdn(a2-3)Gal(b1-3)GalNAc
Outline: as §1

Kdn(a2-3)Gal(b1-3)GlcNAc = target: Kdn(a2-3)Gal(b1-3)GlcNAc
Outline: as §1

Kdn(a2-3)Gal(b1-4)Glc = target: Kdn(a2-3)Gal(b1-4)Glc
Outline: as §1

Kdn(a2-3)Gal(b1-4)GlcNAc = target: Kdn(a2-3)Gal(b1-4)GlcNAc
Outline: as §1

[11] = target: Kdn(a2-3)Gal(b1-4)[Fuc(a1-3)]GlcNAc
Outline: as §1

Kdn(a2-6)Gal(b1-4)GlcNAc = target: Kdn(a2-6)Gal(b1-4)GlcNAc
Outline: as §1

[12] = target: Man(a1-2)Man(a1-2)Man(a1-3)Man
Outline: as §1

[13] = target: Man(a1-2)Man(a1-2)Man(a1-6)[Man(a1-3)]Man
Outline: as §1

Man(a1-2)Man(a1-3)Man = target: Man(a1-2)Man(a1-3)Man
Outline: as §1

[14] = target: Man(a1-2)Man(a1-3)[Man(a1-2)Man(a1-6)]Man
Outline: as §1

B1: DrGRIFIN (Danio rerio), Q6DGJ1 (protein)
chain: MTLRFEASCPDGLCPGWSVILKGETPPEASKFEINFLCDRDDRVAFHFNPRFTESDIICNSYMANRWGQEERCNHFPLGVEEPFQIEIYSDNDHFHVYIDKAKVMQYKHRVEDLKTITKLQVVNDVKISSLEITKKLFY
glycan array binding signal (z-score) (GlcNAc(b1-3)Man): -0.162 | glycan array binding signal (z-score) [1]: -0.101 | glycan array binding signal (z-score) [2]: -0.205 | glycan array binding signal (z-score) [3]: -0.174 | glycan array binding signal (z-score) [4]: -0.166 | glycan array binding signal (z-score) (GlcNAc(b1-4)GlcNAc): -0.135 | glycan array binding signal (z-score) [5]: -0.214 | glycan array binding signal (z-score) [6]: -0.193 | glycan array binding signal (z-score) [7]: -0.134 | glycan array binding signal (z-score) [8]: -0.188 | glycan array binding signal (z-score) [9]: -0.155 | glycan array binding signal (z-score) (GlcNAc(b1-6)GalNAc): -0.133 | glycan array binding signal (z-score) [10]: -0.16 | glycan array binding signal (z-score) (Kdn(a2-3)Gal(b1-3)GalNAc): -0.202 | glycan array binding signal (z-score) (Kdn(a2-3)Gal(b1-3)GlcNAc): -0.2 | glycan array binding signal (z-score) (Kdn(a2-3)Gal(b1-4)Glc): -0.135 | glycan array binding signal (z-score) (Kdn(a2-3)Gal(b1-4)GlcNAc): -0.095 | glycan array binding signal (z-score) [11]: -0.132 | glycan array binding signal (z-score) (Kdn(a2-6)Gal(b1-4)GlcNAc): -0.169 | glycan array binding signal (z-score) [12]: -0.16 | glycan array binding signal (z-score) [13]: -0.182 | glycan array binding signal (z-score) (Man(a1-2)Man(a1-3)Man): -0.221 | glycan array binding signal (z-score) [14]: -0.046
